Source: the supplement of paper PMC8728848
This is one part of the list.

Columns and labels:
Test in all cases: glycan array binding signal (z-score within array); higher = stronger binding
Conditions in all cases: glycan notation: IUPAC condensed, linker removed
[1] = target: GlcNAc(b1-3)Gal(b1-4)GlcNAc(b1-3)Gal(b1-4)GlcNAc(b1-3)GalNAc
Method in brief: (§1)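 Columns mapping to the same glycan were averaged after glycan names were converted to IUPAC-condensed notation. The data come from 3228 arrays in the Consortium for Functional Glycomics database, limited to those with an available protein sequence. Binding is reported as a within-array Z-score averaged across arrays of one protein sequence and across linkers.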

[2] = target: GlcNAc(b1-3)Gal(b1-4)GlcNAc(b1-3)GalNAc
Method in brief: as §1

[3] = target: GlcNAc(b1-3)Gal(b1-4)GlcNAc(b1-3)[GlcNAc(b1-3)Gal(b1-4)GlcNAc(b1-3)]GalNAc
Method in brief: as §1

[4] = target: GlcNAc(b1-3)Gal(b1-4)GlcNAc(b1-6)[Gal(b1-3)]GalNAc
Method in brief: as §1

[5] = target: GlcNAc(b1-3)Gal(b1-4)GlcNAc(b1-6)[GlcNAc(b1-3)Gal(b1-3)]GalNAc
Method in brief: as §1

[6] = target: GlcNAc(b1-3)Gal(b1-4)GlcNAc(b1-6)[GlcNAc(b1-3)]Gal(b1-4)GlcNAc
Method in brief: as §1

GlcNAc(b1-3)GalNAc = target: GlcNAc(b1-3)GalNAc
Method in brief: as §1

GlcNAc(b1-3)Man = target: GlcNAc(b1-3)Man
Method in brief: as §1

[7] = target: GlcNAc(b1-3)[GlcNAc(b1-4)][GlcNAc(b1-6)]GlcNAc
Method in brief: as §1

[8] = target: GlcNAc(b1-3)[GlcNAc(b1-6)]Gal(b1-4)GlcNAc
Method in brief: as §1

[9] = target: GlcNAc(b1-3)[GlcNAc(b1-6)]GalNAc
Method in brief: as §1

[10] = target: GlcNAc(b1-4)Gal(b1-4)GlcNAc
Method in brief: as §1

GlcNAc(b1-4)GlcNAc = target: GlcNAc(b1-4)GlcNAc
Method in brief: as §1

[11] = target: GlcNAc(b1-4)GlcNAc(b1-4)GlcNAc
Method in brief: as §1

[12] = target: GlcNAc(b1-4)GlcNAc(b1-4)GlcNAc(b1-4)GlcNAc(b1-4)GlcNAc
Method in brief: as §1

[13] = target: GlcNAc(b1-4)GlcNAc(b1-4)GlcNAc(b1-4)GlcNAc(b1-4)GlcNAc(b1-4)GlcNAc
Method in brief: as §1

[14] = target: GlcNAc(b1-4)[GlcNAc(b1-6)]GalNAc
Method in brief: as §1

[15] = target: GlcNAc(b1-6)Gal(b1-4)GlcNAc
Method in brief: as §1

GlcNAc(b1-6)GalNAc = target: GlcNAc(b1-6)GalNAc
Method in brief: as §1

[16] = target: GlcNAc6S(b1-3)Gal(b1-4)GlcNAc
Method in brief: as §1

Kdn(a2-3)Gal(b1-3)GalNAc = target: Kdn(a2-3)Gal(b1-3)GalNAc
Method in brief: as §1

Kdn(a2-3)Gal(b1-3)GlcNAc = target: Kdn(a2-3)Gal(b1-3)GlcNAc
Method in brief: as §1

Kdn(a2-3)Gal(b1-4)Glc = target: Kdn(a2-3)Gal(b1-4)Glc
Method in brief: as §1

Kdn(a2-3)Gal(b1-4)GlcNAc = target: Kdn(a2-3)Gal(b1-4)GlcNAc
Method in brief: as §1

[17] = target: Kdn(a2-3)Gal(b1-4)[Fuc(a1-3)]GlcNAc
Method in brief: as §1

Kdn(a2-6)Gal(b1-4)GlcNAc = target: Kdn(a2-6)Gal(b1-4)GlcNAc
Method in brief: as §1

[18] = target: Man(a1-2)Man(a1-2)Man(a1-3)Man
Method in brief: as §1

[19] = target: Man(a1-2)Man(a1-2)Man(a1-6)[Man(a1-3)]Man
Method in brief: as §1

Man(a1-2)Man(a1-3)Man = target: Man(a1-2)Man(a1-3)Man
Method in brief: as §1

[20] = target: Man(a1-2)Man(a1-3)[Man(a1-2)Man(a1-6)]Man
Method in brief: as §1

B1: Epa10 (protein)
chain: MNEKIFRYLTLLFLFELARSLPVEDKLNIKKVFEKRAVDFTPFAHYPRPEGCSSPPNSVSVGLHMNLYNYPYLYVKPSTKGMFTNDTNSDADGETDGDSAGGIEGRAGQCWNPEYQDPNFPRFGYKQYGEFGASDNVNGDISWDHNEFTEGCKPVLAALPPGYNYPDEITFSNFTMVLSGYFKPKTSGVYKFELKADDFILFNFGAKNAFECCNREESIDNFGPYVAYAMWPNQADQELEVYLFEDSYYPLRLFYNNRDYHSKFKIGFYPPGQTTITFDFDGYLFMLDDTGNECRDSIRYRTVCDDKVVDDTTYSTRYSTSMVPGGGSDVITIYYIRMKCEEEDCLGQWDPINNVCYSPDDCADDGGYWNGQMCDQSCKLEGGIVNPDTGDCDKSCIESGGFLDENGNCDTTCRDDGGMLVEGQCDYQCKEAGGILVGDHCDTTCVDSGGKLNEDGTCDHSCRDQGGQLDENGECDTSCKDSGGMLIEGECDTSCKDEGGQLDDNNECINHCKDQGGIIDENGNCDTSCKDSGGKLDESGACDTSCRDDGGIIDENGNCNTTCRDDGGIIVGDHCDTSCRDAGGILIEDHCDTTCRDSGGKLNEDGTCDHSCRDQGGQLDENGKCDYSCKNGGGKLDEDGNCDMSCKENGGKLDENGDCDLSCKEDGGKLDGNGDCDYSCKEEGGVIDESGNCNTTCKDSGGQIIDGECNYGCIEVGGVVIDGECDTSCIDSGGILDGDGNCDRSCIESGGVLEDGACNTTCRDSGGQLNVDGTCDTSCRDDGGMLVEGQCDYQCKEAGGILEDGECVFPPTSSSTSETSSTTDQSSLQSDDSSMESSSTPMDSSTIESSSSEIITSESESESVPIASSSSEVMTSESESESIPILTSSSEIPIASSSSEIPVASSSSEIIIPESESESVPVASSSSEIPIASSSSEIPVASSSSEIPVASSSSEIIIPESESESIPIESTSSEAVSSRSESDSSYPTPTPTTTTITTWPNPIQPTTSNSSPIVSSSTETPGIAESSSRISDLESSRRTSILGDDRTRTRTTITSTITEDGQIITITTTVTGFVPEPTGETEGNGSDDENPENPIENNTDENEFLDPEFTDDIPDDPAGPEDNGNGPVNPEQGNDNDPVNLEDSGNNGAVNPEQAPVNDEDNGGNDPVNPEQDNNNGPANPGQDSTNGSGNSDQIDNNPPTPEENAGDGNSNGNDPADPSRRTSILGDERTRASPGGTSQPTGANGNVNGNSPGANVNGGGTGNSNNNNNNNNNNNNGNAPNGGDGSNGDANQGPSRRTSLLGDERTRAGQAAPTGGSSPDNGIAGDTSNNGGAIVSQQVDDGGAGSPRRTSILGDVRSRTTLNGEVLNFEGSGVRRAVAGNLALPLMMVGLVFNL
For B1, the “glycan array binding signal (z-score)” value [1] was -0.241, the “glycan array binding signal (z-score)” value [2] was -0.313 and the “glycan array binding signal (z-score)” value [3] was -0.284. The “glycan array binding signal (z-score)” value [4] was 1.14, the “glycan array binding signal (z-score)” value [5] was -0.202 and the “glycan array binding signal (z-score)” value [6] was -0.312. For the same binder, the “glycan array binding signal (z-score)” value (GlcNAc(b1-3)GalNAc) was -0.266, the “glycan array binding signal (z-score)” value (GlcNAc(b1-3)Man) was -0.198 and the “glycan array binding signal (z-score)” value [7] was -0.265. The “glycan array binding signal (z-score)” value [8] was -0.314, the “glycan array binding signal (z-score)” value [9] was -0.259 and the “glycan array binding signal (z-score)” value [10] was -0.281. The “glycan array binding signal (z-score)” value (GlcNAc(b1-4)GlcNAc) was -0.26, the “glycan array binding signal (z-score)” value [11] was -0.29 and the “glycan array binding signal (z-score)” value [12] was 0.45. The “glycan array binding signal (z-score)” value [13] was 1.1, the “glycan array binding signal (z-score)” value [14] was -0.297 and the “glycan array binding signal (z-score)” value [15] was -0.08. For the same binder, the “glycan array binding signal (z-score)” value (GlcNAc(b1-6)GalNAc) was -0.237, the “glycan array binding signal (z-score)” value [16] was 0.049 and the “glycan array binding signal (z-score)” value (Kdn(a2-3)Gal(b1-3)GalNAc) was -0.21. For the same binder, the “glycan array binding signal (z-score)” value (Kdn(a2-3)Gal(b1-3)GlcNAc) was -0.209, the “glycan array binding signal (z-score)” value (Kdn(a2-3)Gal(b1-4)Glc) was -0.207 and the “glycan array binding signal (z-score)” value (Kdn(a2-3)Gal(b1-4)GlcNAc) was -0.139. For the same binder, the “glycan array binding signal (z-score)” value [17] was -0.168, the “glycan array binding signal (z-score)” value (Kdn(a2-6)Gal(b1-4)GlcNAc) was -0.238 and the “glycan array binding signal (z-score)” value [18] was -0.264. The “glycan array binding signal (z-score)” value [19] was -0.264, the “glycan array binding signal (z-score)” value (Man(a1-2)Man(a1-3)Man) was -0.299 and the “glycan array binding signal (z-score)” value [20] was -0.247.
